{
  "source": "patent US9872922B2",
  "about": "“Anti-EFNA4 antibody-drug conjugates” (PFIZER, INC., priority 2013, dated 2018)",
  "key": {"MEC1": {"tested_on": "MEC1", "experiment": "Flow cytometry antibody binding (MCF), MEC1", "details": "10 μg/ml antibody; MEC1, B-CLL", "experimental": "(§1) Binding of humanized anti-EFNA4 antibodies huE22 and huE47 was assessed on EFNA4 expressing cells by flow cytometry. Adherent cells were dissociated using TrpLE Express (GIBCO cat #12604-021), neutralized with cell culture media and counted. Cells were plated into a U-bottom 96-well plate (BD Falcon cat #353077) with 5×10e5 cells/100 μL media/well. The plate was centrifuged at 300×g, 5 minutes, 4° C. to pellet cells and the supernatant was discarded. All reagents were kept on ice for the following steps. Each pellet was resuspended in 100 μL primary humanized anti-EFNA4 antibody (huE22 or huE47) or negative control antibody at 10 μg/mL in 3% BSA in PBS. The plate was incubated on ice for 30 minutes. The plate was centrifuged and the cell pellets were washed in 200 μL 3% BSA in PBS. Each cell pellet was resuspended in 100 μL of R-phycoerythrin (PE)-conjugated goat anti-human IgG Fc fragment (Jackson ImmunoResearch cat #109-115-098) that had been diluted 1:50 in 3% BSA in PBS. The plate was incubated on ice for 30 minutes. […] The samples were analyzed by flow cytometry using 5 μL 7AAD (B-D Pharmingen cat #51-68981E) per sample as a viability stain.\n(§2) Endogenous EFNA4 expressing cancer cell lines were analyzed: Breast cell lines BT-483, HCC202 and MX-1, Chronic Lymphocytic Leukemia (CLL) cell line MEC1 and mantle cell lymphoma (MCL) cell line Z138."}, "BT-483": {"tested_on": "BT-483", "experiment": "Flow cytometry antibody binding (MCF), BT-483", "details": "10 μg/ml antibody; BT-483, Breast", "experimental": "as §1, §2"}, "Ephrin-A5 (EFNA5)": {"molecular_target": "T1, Ephrin-A5 (EFNA5) (Homo sapiens, UniProt P52803)", "T1 construct": "purchased R&D", "T1 sequence (P52803 21-203)": "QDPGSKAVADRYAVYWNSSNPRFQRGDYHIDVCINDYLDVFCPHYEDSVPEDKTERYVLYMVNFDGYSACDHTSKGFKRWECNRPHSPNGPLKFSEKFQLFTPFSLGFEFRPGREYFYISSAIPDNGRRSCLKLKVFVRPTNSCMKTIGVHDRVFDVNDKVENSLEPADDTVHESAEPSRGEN", "experiment": "Direct ELISA binding specificity, Ephrin-A5", "details": "biotin-labeled antibody", "experimental": "Further properties were determined using ELISA to analyze the binding specificity of anti-EFNA4 antibodies huE22 and huE47 to Ephrin-A4 (EFNA4) along with homologous family members Ephrin-A1 (EFNA1) and Ephrin-A3 (EFNA3). Antibody binding was determined by direct ELISA with Ephrin-A1-His, Ephrin-A3-huFc, Ephrin-A4-huFc and Ephrin-A5-huFc (all from R&D) coated on BioOne Microlon (Greiner) plates in PBS overnight at 4° C. Biotin-labeled huE22 and huE47 were incubated on the plate for 2.5 hours at room temperature and Streptavidin HRP was used to develop signal from biotin labeled antibody in the absence of interfering human IgG signal."}, "[1]": {"experiment": "In vitro stability in human plasma (ELISA total ADC)", "type": "in vitro ADME", "details": "37° C., mean (n=3), total ADC by ELISA", "experimental": "Quantitation of the total ADC and total antibody, in plasma samples from pharmacokinetic studies in mice dosed with the ADC was determined using an enzyme-linked immunosorbent assay (ELISA) method. ELISA and liquid chromatography tandem mass spectrometry (LC-MS/MS) methods were also used to quantitate total ADC, total antibody and unconjugated payload from the exploratory toxicology studies in rat and monkey and in the in vitro plasma stability study with the ADC.\nTotal antibody concentrations could not be determined for the total ADC incubations in human plasma due to ELISA limitations of detection for a human IgG, in human plasma containing human IgG. […] NC=Not calculated; SD=Standard deviation."}, "[2]": {"tested_on": "BR22 tumor-initiating cells", "experiment": "Tumor-initiating cell (TIC) frequency by limit dilution analysis, BR22", "type": "in vivo, mice (human tumor PDX)", "details": "for # Animals with tumors: 21 weeks post-injection", "experimental": "The day of harvest serial transplantation was chosen based on when tumors were starting to regress following huE22-AcBut-CM exposure. Tumors were dissociated and stained with anti-human ESA, anti-mouse CD45, and anti-mouse H2Kd antibodies. Three tumors per treatment group were pooled, and live human tumor cells (ESA+) were sorted by flow cytometry.\nTumors in recipient mice were measured weekly and at 21 weeks post-injection, tumors that exceeded 200 mm^3 in recipient mice were scored as positive. Using Poisson distribution statistics, via L-Calc software (Stemcell Technologies, Vancouver, BC), injected cell doses of recipients with and without tumors at 21 weeks post-transplant were used to calculate the frequencies of TIC in each population."}, "[3]": {"tested_on": "Breast-13 (BR13) TNBC PDX", "experiment": "In vivo efficacy, BR13 TNBC PDX", "set-up": "species or system NOD/SCID mice (human tumor PDX)"}},
  "data": [
    {"molecule": "huE22 (antibody) heavy: QVQLVQSGAEVKKPGASVKVSCKASGYTFTGYYIHWVRQAPGQGLEWMGWIYPGNFNTKYNERFKGRVTMTTDTSTSTAYMELRSLRSDDTAVYYCAREDGSPYYAMDYWGQGTSVTVSS[human IgG1 constant region omitted here] VL: DIVMTQTPLSLSVTPGQPASISCRSSQSLVHSNGNTFLYWYLQKPGQSPQLLIYRVSNRFSGVPDRFSGSGSGTDFTLKISRVEAEDVGVYYCFQATHVPWTFGGGTKVEIK", "values": [
      {"measurement": "Mean Channel Fluorescent (MCF)", "setting": "MEC1", "result": 24},
      {"measurement": "Mean Channel Fluorescent (MCF)", "setting": "BT-483", "result": 17.7},
      {"measurement": "binding to Ephrin-A5 (EFNA5)", "setting": "Ephrin-A5 (EFNA5)", "result": "but not to EFNA1, EFNA3 or EFNA5"}
    ]},
    {"molecule": "huE22-AcBut-CM: huE22 conjugated via lysine residues to AcBut-N-acetyl-γ-calicheamicin dimethyl hydrazide (AcBut-CM) (conjugate) heavy: QVQLVQSGAEVKKPGASVKVSCKASGYTFTGYYIHWVRQAPGQGLEWMGWIYPGNFNTKYNERFKGRVTMTTDTSTSTAYMELRSLRSDDTAVYYCAREDGSPYYAMDYWGQGTSVTVSS[human IgG1 constant region omitted here] light: DIVMTQTPLSLSVTPGQPASISCRSSQSLVHSNGNTFLYWYLQKPGQSPQLLIYRVSNRFSGVPDRFSGSGSGTDFTLKISRVEAEDVGVYYCFQATHVPWTFGGGTKVEIKRTVAAPSVFIFPPSDEQLKSGTASVVCLLNNFYPREAKVQWKVDNALQSGNSQESVTEQDSKDSTYSLSSTLTLSKADYEKHKVYACEVTHQGLSSPVTKSFNRGEC", "values": [
      {"measurement": "% huE22-AcBut-CM remaining", "setting": "[1]; 1 ug/mL, 0 hours", "result": 100, "unit": "%"},
      {"measurement": "% huE22-AcBut-CM remaining", "setting": "[1]; 50 ug/mL, 0 hours", "result": 100, "unit": "%"},
      {"measurement": "% huE22-AcBut-CM remaining", "setting": "[1]; 50 ug/mL, 168 hours", "result": 82.9, "unit": "%"},
      {"measurement": "# Animals with tumors", "setting": "[2]; 18 cells implanted per animal, 7 animals in group", "result": 0},
      {"measurement": "# Animals with tumors", "setting": "[2]; 90 cells implanted per animal, 8 animals in group", "result": 6},
      {"measurement": "# Animals with tumors", "setting": "[2]; 390 cells implanted per animal, 8 animals in group", "result": 7},
      {"measurement": "reduction of number of TIC vs control-AcBut-CM treated", "setting": "[2]; p=0.019", "result": "about 3 fold"},
      {"measurement": "TIC frequency (1 TIC in x cells)", "setting": "[2]; tumors harvested day 12 post-initial treatment, scored 21 weeks post-injection", "result": 147, "unit": "cells"},
      {"measurement": "Regression (TTP, Days) or % TGI", "setting": "[3]; 0.018 mg/kg, BR13", "result": "No activity"},
      {"measurement": "tumor growth delay", "setting": "[3]; 0.09 mg/kg", "result": "~40", "unit": "days"},
      {"measurement": "tumor volume ± SEM", "setting": "[3]; 0.09 mg/kg, Day 22", "result": "112 ± 20", "unit": "mm^3"},
      {"measurement": "tumor volume ± SEM", "setting": "[3]; 0.09 mg/kg, Day 36", "result": "116 ± 32", "unit": "mm^3"},
      {"measurement": "Regression (TTP, Days)", "setting": "[3]; 0.09 mg/kg, BR13", "result": "Regression (42) Days"},
      {"measurement": "tumor volume ± SEM", "setting": "[3]; 0.09 mg/kg, Day 0", "result": "156 ± 10", "unit": "mm^3"},
      {"measurement": "tumor volume ± SEM", "setting": "[3]; 0.09 mg/kg, Day 7", "result": "145 ± 14", "unit": "mm^3"},
      {"measurement": "tumor volume ± SEM", "setting": "[3]; 0.09 mg/kg, Day 14", "result": "156 ± 21", "unit": "mm^3"},
      {"measurement": "tumor volume ± SEM", "setting": "[3]; 0.09 mg/kg, Day 28", "result": "98 ± 23", "unit": "mm^3"},
      {"measurement": "tumor volume ± SEM", "setting": "[3]; 0.09 mg/kg, Day 42", "result": "138 ± 34", "unit": "mm^3"},
      {"measurement": "tumor volume ± SEM", "setting": "[3]; 0.09 mg/kg, Day 49", "result": "188 ± 46", "unit": "mm^3"},
      {"measurement": "tumor volume ± SEM", "setting": "[3]; 0.09 mg/kg, Day 56", "result": "274 ± 75", "unit": "mm^3"},
      {"measurement": "tumor volume ± SEM", "setting": "[3]; 0.09 mg/kg, Day 63", "result": "328 ± 86", "unit": "mm^3"},
      {"measurement": "tumor volume ± SEM", "setting": "[3]; 0.09 mg/kg, Day 70", "result": "425 ± 93", "unit": "mm^3"},
      {"measurement": "tumor volume ± SEM", "setting": "[3]; 0.09 mg/kg, Day 77", "result": "531 ± 116", "unit": "mm^3"},
      {"measurement": "tumor volume ± SEM", "setting": "[3]; 0.09 mg/kg, Day 84", "result": "667 ± 133", "unit": "mm^3"},
      {"measurement": "tumor volume ± SEM", "setting": "[3]; 0.09 mg/kg, Day 91", "result": "830 ± 146", "unit": "mm^3"},
      {"measurement": "tumor volume ± SEM", "setting": "[3]; 0.27 mg/kg, Day 22", "result": "35 ± 5", "unit": "mm^3"},
      {"measurement": "tumor volume ± SEM", "setting": "[3]; 0.27 mg/kg, Day 144", "result": "573 ± 144", "unit": "mm^3"},
      {"measurement": "tumor volume ± SEM", "setting": "[3]; 0.27 mg/kg, Day 150", "result": "709 ± 248", "unit": "mm^3"},
      {"measurement": "Regression (TTP, Days)", "setting": "[3]; 0.27 mg/kg, BR13", "result": "Regression (84) Days"},
      {"measurement": "tumor volume ± SEM", "setting": "[3]; 0.27 mg/kg, Day 0", "result": "155 ± 14", "unit": "mm^3"},
      {"measurement": "tumor volume ± SEM", "setting": "[3]; 0.27 mg/kg, Day 7", "result": "144 ± 15", "unit": "mm^3"},
      {"measurement": "tumor volume ± SEM", "setting": "[3]; 0.27 mg/kg, Day 14", "result": "91 ± 14", "unit": "mm^3"},
      {"measurement": "tumor volume ± SEM", "setting": "[3]; 0.27 mg/kg, Day 28", "result": "17 ± 4", "unit": "mm^3"},
      {"measurement": "tumor volume ± SEM", "setting": "[3]; 0.27 mg/kg, Day 56", "result": "6 ± 2", "unit": "mm^3"},
      {"measurement": "tumor volume ± SEM", "setting": "[3]; 0.27 mg/kg, Day 63", "result": "7 ± 3", "unit": "mm^3"},
      {"measurement": "tumor volume ± SEM", "setting": "[3]; 0.27 mg/kg, Day 70", "result": "13 ± 4", "unit": "mm^3"},
      {"measurement": "tumor volume ± SEM", "setting": "[3]; 0.27 mg/kg, Day 77", "result": "13 ± 7", "unit": "mm^3"},
      {"measurement": "tumor volume ± SEM", "setting": "[3]; 0.27 mg/kg, Day 84", "result": "30 ± 13", "unit": "mm^3"},
      {"measurement": "tumor volume ± SEM", "setting": "[3]; 0.27 mg/kg, Day 91", "result": "40 ± 15", "unit": "mm^3"},
      {"measurement": "tumor volume ± SEM", "setting": "[3]; 0.27 mg/kg, Day 98", "result": "79 ± 33", "unit": "mm^3"},
      {"measurement": "tumor volume ± SEM", "setting": "[3]; 0.27 mg/kg, Day 105", "result": "99 ± 36", "unit": "mm^3"},
      {"measurement": "tumor volume ± SEM", "setting": "[3]; 0.27 mg/kg, Day 112", "result": "147 ± 53", "unit": "mm^3"},
      {"measurement": "tumor volume ± SEM", "setting": "[3]; 0.27 mg/kg, Day 119", "result": "198 ± 65", "unit": "mm^3"},
      {"measurement": "tumor volume ± SEM", "setting": "[3]; 0.27 mg/kg, Day 126", "result": "290 ± 97", "unit": "mm^3"},
      {"measurement": "tumor volume ± SEM", "setting": "[3]; 0.27 mg/kg, Day 133", "result": "332 ± 113", "unit": "mm^3"},
      {"measurement": "tumor volume ± SEM", "setting": "[3]; 0.27 mg/kg, Day 140", "result": "522 ± 156", "unit": "mm^3"}
    ]}
  ]
}
